The text below walks through data of patent US20260062705A1 (UNIVERSITY OF FLORIDA RESEARCH FOUNDATION, published 2026).

For this assay, the target named is PRKDC (human, UniProt P78527). In words: reciprocal co-immunoprecipitation and western blot, HEY and OVCAR8 cell lysates. Here is the method:
FIG. 6A is the results of immunoprecipitation with FAP and PRKDC antibodies. HEY and OVCAR8 cells were immunoprecipitated with either PRKDC or FAP antibody and the immunoprecipitates were subjected to western blot to detect FAP or PRKDC respectively. All blots derived from the same experiment and were processed in parallel.
Immunoprecipitation and mass spectrometry: Samples for co-immunoprecipitation and mass spectrometry were prepared using Thermo Scientific™ Pierce™ Co-Immunoprecipitation Kit (Cat #PI26149) following manufacturer's protocol. For mass spectrometry, samples were precipitated with anti-FAB polyclonal antibody (R&D systems, Cat #AF3715) and then sent to UF core for analysis on TSQ Altis™ Triple Quadrupole Mass Spectrometer (Thermo Fisher). For co-immunoprecipitation, samples were either precipitated with anti-FAB polyclonal antibody or goat anti-PRKDC polyclonal antibody (Abcam, Cat #ab168854).for 2 h and further with TrueBlot™ anti-Rabbit Ig Beads or TrueBlot™ anti-Goat Ig Beads ((Rockland, Limerick, PA). After several washes, beads were boiled and subjected to western blot analysis.
(Immunoblotting shows a protein as a band on a membrane.)

Sequence of UniProt P78527 (P78527 whole entry): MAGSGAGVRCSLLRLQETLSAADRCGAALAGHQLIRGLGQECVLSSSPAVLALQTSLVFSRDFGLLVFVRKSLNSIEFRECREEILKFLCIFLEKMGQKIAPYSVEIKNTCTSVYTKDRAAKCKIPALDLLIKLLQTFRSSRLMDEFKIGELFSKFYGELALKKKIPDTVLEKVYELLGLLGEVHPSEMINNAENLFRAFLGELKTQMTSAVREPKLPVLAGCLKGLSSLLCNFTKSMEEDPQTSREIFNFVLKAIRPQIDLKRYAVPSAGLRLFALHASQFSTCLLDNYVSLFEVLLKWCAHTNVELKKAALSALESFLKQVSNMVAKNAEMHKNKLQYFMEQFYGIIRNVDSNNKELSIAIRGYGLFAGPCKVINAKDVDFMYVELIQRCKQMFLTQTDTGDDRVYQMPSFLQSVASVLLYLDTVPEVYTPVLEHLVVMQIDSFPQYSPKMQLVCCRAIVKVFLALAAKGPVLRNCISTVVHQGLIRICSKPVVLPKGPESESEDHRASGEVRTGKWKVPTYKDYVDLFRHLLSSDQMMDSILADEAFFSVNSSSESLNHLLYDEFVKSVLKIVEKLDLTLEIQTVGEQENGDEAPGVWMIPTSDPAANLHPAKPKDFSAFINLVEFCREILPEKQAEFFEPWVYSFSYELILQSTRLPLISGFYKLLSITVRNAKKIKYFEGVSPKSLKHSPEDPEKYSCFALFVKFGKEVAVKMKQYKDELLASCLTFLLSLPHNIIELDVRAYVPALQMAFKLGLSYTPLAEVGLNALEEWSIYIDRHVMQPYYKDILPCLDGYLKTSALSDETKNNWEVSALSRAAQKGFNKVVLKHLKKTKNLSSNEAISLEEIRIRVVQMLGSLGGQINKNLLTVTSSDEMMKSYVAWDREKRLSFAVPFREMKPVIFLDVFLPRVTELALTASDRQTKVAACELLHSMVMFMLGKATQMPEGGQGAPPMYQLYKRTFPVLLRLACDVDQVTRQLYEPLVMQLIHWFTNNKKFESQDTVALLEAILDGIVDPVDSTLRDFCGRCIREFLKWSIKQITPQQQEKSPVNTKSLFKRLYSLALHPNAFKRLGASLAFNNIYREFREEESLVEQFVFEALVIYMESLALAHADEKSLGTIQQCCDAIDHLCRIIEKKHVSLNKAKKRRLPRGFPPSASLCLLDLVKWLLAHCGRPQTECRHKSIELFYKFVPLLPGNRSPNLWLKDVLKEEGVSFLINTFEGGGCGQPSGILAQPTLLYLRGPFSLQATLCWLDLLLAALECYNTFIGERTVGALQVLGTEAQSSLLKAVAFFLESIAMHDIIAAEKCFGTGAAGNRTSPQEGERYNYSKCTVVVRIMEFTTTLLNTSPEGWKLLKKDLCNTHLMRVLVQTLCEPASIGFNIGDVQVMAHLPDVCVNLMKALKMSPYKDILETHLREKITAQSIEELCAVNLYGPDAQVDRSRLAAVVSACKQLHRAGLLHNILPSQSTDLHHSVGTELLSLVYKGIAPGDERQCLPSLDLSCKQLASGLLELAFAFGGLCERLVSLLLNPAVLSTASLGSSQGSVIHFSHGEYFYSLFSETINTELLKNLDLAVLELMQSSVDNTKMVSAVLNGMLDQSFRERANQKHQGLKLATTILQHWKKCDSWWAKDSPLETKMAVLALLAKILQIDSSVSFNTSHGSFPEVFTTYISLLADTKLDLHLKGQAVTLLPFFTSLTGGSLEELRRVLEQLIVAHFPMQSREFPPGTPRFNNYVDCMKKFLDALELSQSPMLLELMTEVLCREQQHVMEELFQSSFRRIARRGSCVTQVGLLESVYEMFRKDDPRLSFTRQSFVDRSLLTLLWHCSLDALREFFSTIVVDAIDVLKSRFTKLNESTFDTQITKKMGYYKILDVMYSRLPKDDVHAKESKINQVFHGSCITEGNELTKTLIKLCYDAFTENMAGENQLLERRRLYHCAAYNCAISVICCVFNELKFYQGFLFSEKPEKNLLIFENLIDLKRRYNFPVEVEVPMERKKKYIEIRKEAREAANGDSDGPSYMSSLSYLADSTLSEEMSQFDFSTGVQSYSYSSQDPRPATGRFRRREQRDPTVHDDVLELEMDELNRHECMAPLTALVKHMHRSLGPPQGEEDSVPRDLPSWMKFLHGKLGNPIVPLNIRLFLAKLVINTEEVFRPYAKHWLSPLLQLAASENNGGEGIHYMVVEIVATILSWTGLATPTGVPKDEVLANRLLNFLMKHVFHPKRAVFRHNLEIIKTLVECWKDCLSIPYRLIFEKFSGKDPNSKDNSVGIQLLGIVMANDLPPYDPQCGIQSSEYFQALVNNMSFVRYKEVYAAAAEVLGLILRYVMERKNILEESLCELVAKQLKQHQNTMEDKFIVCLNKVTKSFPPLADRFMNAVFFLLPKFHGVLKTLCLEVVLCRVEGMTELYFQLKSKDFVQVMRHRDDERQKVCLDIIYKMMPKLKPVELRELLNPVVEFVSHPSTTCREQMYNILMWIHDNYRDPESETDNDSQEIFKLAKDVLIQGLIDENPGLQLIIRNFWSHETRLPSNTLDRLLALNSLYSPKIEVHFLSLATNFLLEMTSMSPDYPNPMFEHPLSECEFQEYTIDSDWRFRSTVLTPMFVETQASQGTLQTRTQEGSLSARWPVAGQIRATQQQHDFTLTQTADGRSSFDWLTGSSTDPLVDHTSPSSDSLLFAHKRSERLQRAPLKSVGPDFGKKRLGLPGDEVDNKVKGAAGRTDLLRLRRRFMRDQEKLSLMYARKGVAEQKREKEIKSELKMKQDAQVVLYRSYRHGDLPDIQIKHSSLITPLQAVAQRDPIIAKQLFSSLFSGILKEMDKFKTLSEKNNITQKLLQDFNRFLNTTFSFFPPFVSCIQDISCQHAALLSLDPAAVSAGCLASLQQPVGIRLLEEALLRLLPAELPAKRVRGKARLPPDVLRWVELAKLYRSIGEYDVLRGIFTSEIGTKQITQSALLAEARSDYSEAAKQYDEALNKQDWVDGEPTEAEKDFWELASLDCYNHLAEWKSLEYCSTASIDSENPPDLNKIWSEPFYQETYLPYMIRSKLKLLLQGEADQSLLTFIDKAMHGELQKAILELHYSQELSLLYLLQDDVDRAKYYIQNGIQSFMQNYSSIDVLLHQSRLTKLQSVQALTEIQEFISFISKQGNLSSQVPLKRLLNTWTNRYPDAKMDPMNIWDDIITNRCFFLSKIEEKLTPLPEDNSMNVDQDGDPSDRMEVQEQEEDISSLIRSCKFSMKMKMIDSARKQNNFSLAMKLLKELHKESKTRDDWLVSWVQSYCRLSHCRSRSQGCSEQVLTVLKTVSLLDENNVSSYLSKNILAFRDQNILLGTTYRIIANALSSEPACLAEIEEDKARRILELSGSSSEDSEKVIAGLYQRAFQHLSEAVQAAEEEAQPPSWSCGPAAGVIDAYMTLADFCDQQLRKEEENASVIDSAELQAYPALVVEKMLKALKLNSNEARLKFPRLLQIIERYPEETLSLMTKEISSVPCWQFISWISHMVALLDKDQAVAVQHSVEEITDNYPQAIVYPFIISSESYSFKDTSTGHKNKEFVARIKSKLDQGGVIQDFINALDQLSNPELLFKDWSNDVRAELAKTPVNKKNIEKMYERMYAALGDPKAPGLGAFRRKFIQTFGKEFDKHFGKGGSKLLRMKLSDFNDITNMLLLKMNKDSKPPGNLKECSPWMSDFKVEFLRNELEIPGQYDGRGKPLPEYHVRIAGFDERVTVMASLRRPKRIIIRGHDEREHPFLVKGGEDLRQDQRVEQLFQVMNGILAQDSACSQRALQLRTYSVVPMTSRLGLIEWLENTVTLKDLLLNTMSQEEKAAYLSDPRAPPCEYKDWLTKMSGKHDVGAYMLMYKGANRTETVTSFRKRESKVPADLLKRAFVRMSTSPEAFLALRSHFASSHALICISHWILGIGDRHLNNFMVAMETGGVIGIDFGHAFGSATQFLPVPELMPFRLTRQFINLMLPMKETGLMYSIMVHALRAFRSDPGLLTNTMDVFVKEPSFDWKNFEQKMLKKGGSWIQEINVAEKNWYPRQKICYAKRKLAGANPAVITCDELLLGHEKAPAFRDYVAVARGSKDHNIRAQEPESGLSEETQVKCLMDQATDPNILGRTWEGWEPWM

B1: fibroblast activation protein alpha (enzyme)
chain: not shown
notes: Endogenous FAP of HEY and OVCAR8 cells (immunoprecipitates, lipid raft isolates, stained cells); also called FAP
With B1, the binding result is given as “binds”.
